According to paper PMC7289404 (Nature chemical biology, 2020):

Biological target: N-terminally 3Flag-tagged Cdc20 (the Cdc20 of recombinant MCC) (human, UniProt Q12834)
Test: pull-down

Chain of UniProt Q12834 (Q12834 whole entry): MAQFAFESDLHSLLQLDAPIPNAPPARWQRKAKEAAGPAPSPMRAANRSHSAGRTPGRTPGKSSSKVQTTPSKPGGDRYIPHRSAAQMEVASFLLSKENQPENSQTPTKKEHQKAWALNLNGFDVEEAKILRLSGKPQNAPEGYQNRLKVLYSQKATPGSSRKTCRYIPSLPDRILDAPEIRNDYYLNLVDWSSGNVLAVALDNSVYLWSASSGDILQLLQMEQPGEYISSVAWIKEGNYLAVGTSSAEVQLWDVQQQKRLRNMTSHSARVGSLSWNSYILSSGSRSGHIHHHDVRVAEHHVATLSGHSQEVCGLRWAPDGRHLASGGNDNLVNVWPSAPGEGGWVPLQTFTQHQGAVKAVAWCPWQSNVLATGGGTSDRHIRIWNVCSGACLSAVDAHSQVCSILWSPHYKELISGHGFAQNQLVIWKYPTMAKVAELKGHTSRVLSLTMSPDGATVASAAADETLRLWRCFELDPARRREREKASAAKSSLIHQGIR

B1: Mad2 (of recombinant MCC) (natural protein)
chain: not shown
binding result: binds
